# About 64,000 (15%) of roughly 420,000 compounds were called active. This list was built around the results that the source calls inconclusive (neither active nor inactive); the mix of calls is not that of the screen. Calls follow the shape of the dose curve; as a rule, active = well fitted inhibition curve with a large enough effect; inconclusive = small, poorly fitted or top-dose-only effect; inactive = flat fitted curve, though single readings scatter. Potencies of inconclusive entries are left out as doubtful fits.
# Assay: qHTS for Inhibitors of human tyrosyl-DNA phosphodiesterase 1 (TDP1): qHTS in cells in absence of CPT; also: nearly all actives have a fitted effect of over 55% in size
# Conditions: DT40 Tdp1-/- hTDP1 cells, no CPT, ATP luminescence, 48 h; series mostly up to 46.2 µM
# In short: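 Seeded 400 DT40-hTDP1 cells/well (vehicle DMSO, no 20 nM CPT); pinned compounds; ≥48 hr at 37 °C; CellTiter-Glo luminescence as viability measure.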
# Potency is read from the fitted curve at half-maximal effect; tags tell the direction and shape of the fitted curve.
row,Compound,Potency
1,COc1cc(/C=C2\C(=N)N3N=C(S(C)(=O)=O)SC3=NC2=O)ccc1OCCOc1ccccc1C,"inconclusive [inhibitor, single point]"
2,CCCOc1ccc(C2C(C(=O)c3cc4ccccc4o3)=C(O)C(=O)N2c2cc(C)on2)cc1 (configuration not stated),"inconclusive [inhibitor, single point]"

# From PubChem BioAssay AID686978 (National Center for Advancing Translational Sciences (NCATS), 2013)
